Source: PubChem BioAssay AID493208 (National Center for Advancing Translational Sciences (NCATS), 2011)
About 340 (0.77%) of roughly 44,000 compounds were called active. Inconclusive results (about 5%) are left out. Calls come from the whole dose curve; as a rule, active = well fitted inhibition curve with a large enough effect; inconclusive = small, poorly fitted or top-dose-only effect; inactive = flat fitted curve, though single readings scatter. Some of the results follow.

Experiment: Acumen qHTS Assay for Inhibitors of the mTORC1 Signaling Pathway in MEF (Tsc2-/-, p53-/-) Cells: Sytravon; note: nearly all actives have a fitted effect of over 50% in size;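 for activity change, negative = inhibition: plate controls were DMSO for no effect and rapamycin for full effect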
Settings: phospho-rpS6 immunofluorescence/PI, 24 h; series mostly up to 38.3 µM; activity change, negative = inhibition: at the top concentration
Method in brief: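 Read-out: phospho-S6 Alexa-488 intensity over PI intensity per well, scored as % active cells using thresholds from rapamycin (7.5 nM) and DMSO controls. Tsc2-/-, p53-/- MEFs exposed to compound for 24 h; PI cell count recorded as viability.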
Potency is the fitted concentration of half-maximal effect.

Activity change, negative = inhibition, inactive:
COCCn1c(C)cc(O)c(C(c2ccccc2OC)N2CCCCC2)c1=O (stereo not given) 5.21%
COc1ccc(OC)c(CCNC(=O)c2ccc3[nH]c(C)c(C)c3c2)c1 -4.15%
COc1ccc(C(CC(=O)Nc2ccc(OC)c(OC)c2)N2Cc3ccccc3C2=O)cc1 (stereo not given) 1.2%
Cc1ccc(C)c(N2CCN(C(=O)c3cccn3-c3nnc(N4CCCCC4)s3)CC2)c1 -11.7%
COc1cccc(CNC(=O)c2cc3c(=O)n(C)c4ccccc4c3n2C)c1 2.13%
Cc1ccc2nc(SCc3nc(-c4ccccc4C)no3)[nH]c2c1 4.4%
Cc1ccc2c(CC(=O)Nc3c(C(=O)Nc4cccc(Cl)c4)oc4ccccc34)coc2c1C -1.78%
CCCCN(CC)CCNC(=O)Cn1c(=O)c2cccn2c2cccnc21 -6.66%
Cc1ccc(NC(=O)Cn2c(=O)c(C(F)(F)F)nc3ccccc32)c(C)c1 6.83%
Cc1ccc(N2CCN(C(=O)C3CCC(CNS(=O)(=O)c4ccc(Br)s4)CC3)CC2C)cc1 (stereo not given) -10.3%
Cc1ccc(Nc2cc(C(=O)NC3CCCC3)c3ccccc3n2)c(C)c1 -4.58%
CN(Cc1ccccc1)C(=O)Cn1ncc2c3ccccc3n(Cc3cccc(Cl)c3)c2c1=O -3.98%
COc1ccc(NC(=O)CSC2=Nc3ccccc3C3=NC(Cc4ccccc4)C(=O)N23)cc1Cl (stereo not given) 4.36%
Cc1ccc(Cl)cc1Nc1sc(C(=O)c2ccccc2)c(N)c1S(=O)(=O)c1ccccc1 5.33%
CC(C)(C)c1ccc(C(=O)N2CC(=O)Nc3ccc(F)cc3C2c2ccc(F)cc2)cc1 (stereo not given) 0%
Cc1cc(C)c2oc(-c3cccc(NC(=O)c4cc5ccccc5o4)c3)nc2c1 -3.68%
COc1cc(CCC(=O)NCc2ccc3c(c2)CCN3C(=O)c2cccc(C)c2)cc(OC)c1OC -14.9%
COc1cc(C2c3c(oc4ccccc4c3=O)C(=O)N2Cc2ccccc2Cl)ccc1O (stereo not given) 2.58%
Cc1ccnc(NS(=O)(=O)c2cc(-c3cc(C)no3)ccc2C)c1 -6.12%
Cc1ccc(-n2ncc(C(=O)Nc3ccc4c(c3)OCO4)c2C2CCN(C(=O)OC(C)(C)C)CC2)cc1 -9.36%
Cc1nc2scc(C)n2c(=O)c1S(=O)(=O)Nc1ccc(N2CCOCC2)cc1 -4.73%
CCc1ccc(N(CC)C(=O)Cn2c(=O)oc3ccccc32)cc1 -8.13%
Cc1nn(S(=O)(=O)c2ccc(F)cc2)c(C)c1S(=O)(=O)N1CCC(C)CC1 -2.31%
COc1ccc(NC(=O)C2CCCN(S(=O)(=O)c3ccc4c(c3)CCCC(=O)N4)C2)c(OC)c1 (stereo not given) 6.98%
COc1cccc2cc(C(=O)NCCc3c(C)[nH]c4ccc(Br)cc34)c(=O)oc12 -29.3%
Cc1ccc(S(=O)(=O)c2cn(Cc3ccc(F)cc3)c3cc(F)c(F)cc3c2=O)cc1 -1.27%
CCOC(=O)c1cc2c(=O)n3ccccc3nc2n(CC(C)C)c1=NC(=O)c1cc2ccccc2o1 14.9%
CC(=O)c1cccc(NC(=O)CCS(=O)(=O)c2ccc(Br)s2)c1 -4.33%
CCOCCn1ccc2c(OCC(=O)Nc3ccc(OC(F)(F)F)cc3)cccc2c1=O 2.08%
O=C(CN1C(=O)CC(c2ccccc2)Sc2ccccc21)Nc1cccc(Cl)c1 (stereo not given) -13.5%
CC(C)(C)NC(=O)c1cnn2c(C(F)F)cc(-c3ccccc3)nc12 -4%
COc1ccc(/C=C/C(=O)Nc2nc3n(n2)C(c2ccccc2)C=C(c2ccccc2)N3)cc1 (stereo not given) -13.4%
CCN(C(=O)Cn1c(=O)oc2cc(Cl)ccc21)c1cccc(C(F)(F)F)c1 -1.91%
Cc1ccc(CCNC(=O)C2CCN(c3nnc(-n4cccc4CNc4ccc(C)cc4)s3)CC2)cc1 2.34%
COCCCNC(=O)c1cc(-c2cccnc2)nc2ccc(S(=O)(=O)N3CCC(C)CC3)cc12 0.654%
CN1C(=O)C2(c3ccccc31)N(c1cccc(F)c1)C(=O)CS2(=O)=O (stereo not given) -1.07%
COc1ccc(Cl)cc1NC(=O)c1c(NCc2sccc2C)sc2c1CCCC2 -1.61%
Clc1ccccc1CNc1nc2ccccc2c2nc(-c3cccnc3)nn12 -0.0869%
O=C(NCc1ccccc1Cl)c1cnc2sc(N3CCCCC3)nn2c1=O 4.11%
COc1ccc(OC)c(CNS(=O)(=O)c2c(C(=O)N3CCCCCC3)c(C)n(C)c2C)c1 -9.38%
O=C(Cn1nnc(-c2ccc(Cl)cc2)n1)NCc1ccc(F)cc1 1.78%
COc1ccccc1N1CCN(C(=O)CCNS(=O)(=O)c2ccc3c(c2)CCN3C(=O)C2CC2)CC1 -0.662%
COc1ccc(Cl)cc1NC(=O)CSC1=Nc2ccccc2C2=NC(CC(=O)NCc3ccc4c(c3)OCO4)C(=O)N12 (stereo not given) 0.646%
Cc1ccc(NC(=O)c2cnc(SCC(=O)Nc3cc(C)on3)n(C)c2=O)cc1 0.958%
C=CCc1ccccc1OCC(O)CN1CCN(c2ccccc2)CC1 (stereo not given) 7.22%
COc1ccccc1C(=O)Nc1ccc2c(c1)nc(CN1CCCCC1)n2C 3.71%
Cc1cc(C)n2nc(SCC(=O)Nc3cccc(C(F)(F)F)c3)nc2n1 1.91%
CCn1c(=O)n(CC)c2cc(N3CCCCC3)c(NC(=O)Nc3ccccc3C(F)(F)F)cc21 -0.922%
CCC(Oc1ccc(F)cc1)C(=O)Nc1nc(-c2ccc(F)cc2)ns1 (stereo not given) -11.5%
COc1ccc(C(CC(=O)NCc2ccccc2)N2Cc3ccccc3C2=O)cc1 (stereo not given) -7.41%
CCOC(=O)c1ccc(NC(=O)CC2C(=O)N(c3cccc(OC)c3)C(=O)N2Cc2ccc(OC)cc2)cc1 (stereo not given) 2.01%
CCc1ccccc1NC(=O)c1cnc2sc(N3CCOCC3)nn2c1=O -10.1%
CC(C)c1cnc2c(c1SCC(=O)NCc1ccccc1)c(=O)n(C)c(=O)n2C 1.02%
Cc1ccccc1NC(=O)CSc1nc(=O)n(CCN2CCOCC2)c2c1CCC2 -0.827%
Cc1sc2c(c1C)c(=O)n(-c1cccc(C(F)(F)F)c1)c(=O)n2Cc1ccc(F)cc1 0.486%
COC(=O)c1ccc(NC(=O)CCc2c(C)nc3c(c2C)c(=O)n(C)c(=O)n3C)cc1 -10.4%
COc1ccccc1Cc1nc2ccccc2nc1SCC(=O)Nc1cccc(Cl)c1C -27%
COc1cc(NC(=O)CSC2=Nc3ccccc3N=C(c3ccc(F)cc3)C2)cc(OC)c1 5.63%
COc1ccc(CNC(=O)c2cnc3cc(C)ccn3c2=O)cc1 -2.87%
CCOCN(C(=O)CSc1nc2ccccc2[nH]1)c1c(C)cccc1CC 2.96%
CCOC(=O)c1c(C)oc2nc(C)nc(NCc3cccc(OC)c3)c12 -0.713%
O=C(c1ccccc1)c1ccc2nc(Nc3ccccc3Cl)c3nncn3c2c1 5.24%
CCCCN(CC)C(=O)Cn1nc(C)c2c(C)n(-c3ccccc3)nc2c1=O -1.51%
CCOC(=O)c1cc(OC(=O)c2ccc(OC)c(OC)c2)n(-c2ccccc2)n1 -5.14%
Cc1ccc(N2CC(C(=O)Nc3ccc(Cl)cc3Cl)CC2=O)cc1 (stereo not given) -6.93%
Cc1cccc(Cn2c(SCc3ccc(C(=O)NC4CCCCC4)cc3)nc3cccnc32)c1 -11.6%
COc1ccccc1CNC(=O)CCCn1c(=O)c2ccccc2n(Cc2ccccc2F)c1=O -11.6%
COc1ccccc1NC(=O)CCNS(=O)(=O)c1ccc2c(c1)CCCC(=O)N2 5.14%
CCn1c(=O)cc(SCC(=O)N2CCN(c3cc(C)ccc3C)CC2)c2ccccc21 0.123%
O=C(CSc1nnc(-c2ccccc2)o1)N1CCCc2ccccc21 -15.2%
CCOc1ccccc1CNC(=O)c1cnc2sc(N3CCC(C)CC3)nn2c1=O -16.2%
COc1ccc(C(=O)Nc2nnc(S(=O)(=O)N3CCOCC3)s2)cc1 -27.5%
CCc1ccc(-c2csc(-c3cc4cc(Br)ccc4oc3=O)n2)cc1 -1.54%
Cc1nn(C(C)C(=O)NCc2cccc(F)c2)c(=O)c2c1sc1ccccc12 (stereo not given) -0.231%
CCN(CC)C(=O)Cn1cc(SCC(=O)Nc2ccc(C)cc2)c2ccccc21 -4.43%
Cc1ccc(C)c(N2CCN(C(=O)Cn3nc(Cc4cccnc4)c4ccccc4c3=O)CC2)c1 -1.02%
COc1ccc(C)cc1NC(=O)C(NS(=O)(=O)c1cccc2nsnc12)c1ccccc1 (stereo not given) -14%
CCOC(=O)N1CCc2c(sc3c2c(=O)n(-c2ccc(Cl)cc2)c(=O)n3CC(=O)Nc2ccccc2)C1 1.41%
CCn1c2ccc(F)cc2c2nnc(SCCN3CCCCC3)nc21 -2.42%
Cc1cccc(CNC(=O)C2CCN(c3nc4ccc(Cl)cc4[nH]3)CC2)c1 1.92%
Cc1cc(C)c2c(C)c(C(=O)N3CCC(c4nc5ccccc5s4)CC3)oc2c1 2.57%
Cc1nc2c3ccccc3nc(NNC(=O)CCC(=O)N3CCN(c4ccccc4F)CC3)n2n1 -16.9%
COc1ccc(C2Nc3ccccc3-c3nnc(SC)nc3O2)cc1C (stereo not given) 0.744%
COc1cc(C2c3c(oc4ccc(C)cc4c3=O)C(=O)N2Cc2ccc(F)cc2)ccc1O (stereo not given) 6.51%
Cc1ccc(C(=O)Nc2ccccc2F)cc1S(=O)(=O)N1CCOCC1 2.72%
Cc1ccc(NC(=O)CCC(=O)N2CCOc3ccccc32)c(Cl)c1 -13.4%
Cc1nc2cccnc2n1-c1cccc(C(=O)NCCc2ccc(Cl)cc2)c1 -4.38%
N#Cc1ccccc1NC(=O)C(=O)NCC(c1ccc2c(c1)OCO2)N1CCN(c2ccccc2)CC1 (stereo not given) -1.41%
O=C(Nc1ccc2nc(SCC(=O)N3CCCc4ccccc43)sc2c1)c1ccc(F)cc1 -2.71%
COc1cc(CN2CCc3nc(N4CCN(c5ccccc5F)CC4)ncc3C2)ccc1OC(C)C 0.0006%
CCC(=O)N1CCCc2cc(S(=O)(=O)Nc3ccc(C)c(C)c3)ccc21 -1.56%
Cc1c(C(=O)Nc2ccc(Br)cc2F)sc2ncnc(N(C)C3CCCCC3)c12 -6.91%
CCOC(=O)c1c(C)[nH]c(C)c1S(=O)(=O)NCC(=O)N(C)c1ccc(C)c(C)c1 -8.31%
O=C(Nc1c(C(=O)c2ccccc2)oc2ccccc12)c1cc(=O)c2ccccc2o1 4.59%

Potency, active:
COc1ccc2cc(CNc3ccccc3)c(=O)n(CC(=O)Nc3ccc(C)cc3C)c2c1 7.36 µM
